The list shows a part of the results.
Target: no compound (DMSO)
Assay: log2 fold change of degron read counts, EGFP-low vs EGFP+ sorted cells; higher = lower degron-EGFP level without compound (poor expression or instability)
Settings: compound: DMSO control; 18 h
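Also: jurkat cells carrying a lentiviral library of mutant zinc finger degrons fused to EGFP plus mCherry, mCherry+ cells FACS sorted, degron abundance counted by next-generation sequencing.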

Sequence | log2 fold change of degron read counts
LTCEICGFLCTQKGNLLRHIKL | 0.582
FNCNVCGAVFTQKGNLLRHIKL | -0.749
FLCEICGRIFTQKGNLLRHIKL | 0.561
FTCEICGAWFTQKGNLLRHIKL | -0.339
FCCNQCGATFTQKGNLLRHIKL | -0.88
FDCNICGAKFTQKGNLLRHIKL | -1.39
FNCPVCGAGFTQKGNLLRHIKL | -0.399
FECPICGHSFTQKGNLLRHIKL | -0.675
FHCNQCGAGFTQKGNLLRHIKL | -0.901
FTCPQCGALFTQKGNLLRHIKL | -1.4
FWCPQCGANFTQKGNLLRHIKL | 0.298
LICNQCGFVCTQKGNLLRHIKL | 0.794
FECEICGHKFTQKGNLLRHIKL | -3.31
FQCNQCGHVFTQKGNLLRHIKL | -0.583
FGCSVCGHGFTQKGNLLRHIKL | 0.655
FICPVCGAQFTQKGNLLRHIKL | -0.213

Sequence | log2 fold change of degron read counts
FYCEQCGATFTQKGNLLRHIKL | -1.75
FGCEICGHRFTQKGNLLRHIKL | -1.41
FHCNQCGRQFTQKGNLLRHIKL | -0.721
FSCEQCGAHFTQKGNLLRHIKL | -1.65
LYCNQCGFQCTQKGNLLRHIKL | 0.384
FGCNVCGALFTQKGNLLRHIKL | 0.59
FQCNVCGATFTQKGNLLRHIKL | -0.683
FWCEQCGAMFTQKGNLLRHIKL | -0.175
FYCDICGAIFTQKGNLLRHIKL | -0.547
FRCDVCGAYFTQKGNLLRHIKL | -0.32
FLCNQCGRCFTQKGNLLRHIKL | 0.328
FTCEICGHAFTQKGNLLRHIKL | -1.34
FYCDQCGATFTQKGNLLRHIKL | -2.22
FCCPQCGAPFTQKGNLLRHIKL | -1.28
FCCNICGANFTQKGNLLRHIKL | -2.1
FICNICGAHFTQKGNLLRHIKL | -0.573
